{"source": "PubChem BioAssay AID686978", "about": "(National Center for Advancing Translational Sciences (NCATS), 2013)", "note": "Among all 420,000 compounds or so, about 64,000 (15%) were called active. Inconclusive results, whose numbers are uncertain, are shown with a selection of clear calls. The call rests on the fitted dose curve; in most records, active means well fitted inhibition curve with a large enough effect; inconclusive means small, poorly fitted or top-dose-only effect; inactive means flat fitted curve, though single readings scatter. Potencies of inconclusive entries are left out as doubtful fits. On the % scale 0 is the no-effect control and ±100 the full control effect; potency means the concentration at half of the fitted maximal effect; tags describe the fitted curve by direction and shape.", "data": [{"test": "qHTS for Inhibitors of human tyrosyl-DNA phosphodiesterase 1 (TDP1): qHTS in cells in absence of CPT; further: nearly all actives have a fitted effect of over 55% in size", "settings": "DT40 Tdp1-/- hTDP1 cells, no CPT, ATP luminescence, 48 h; activity change, negative = growth inhibition: at 46.2 µM (top of the series) unless noted", "summary_of_the_method": "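Cells were dispensed at 400 per well, compounds added by pin tool, plates incubated ≥48 hr at 37 °C, then CellTiter-Glo added for 30 min at room temperature before luminescence reading. Line: DT40 Tdp1-/- complemented with hTDP1; camptothecin omitted.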", "values": [{"smiles": "COc1ccc(C(=O)N/N=c2\\oc3ccccc3cc2C(=O)NCc2ccccc2)cc1", "Potency": "active: 14.6 µM"}, {"smiles": "O=C(Nc1cccc(NC(=O)c2ccco2)c1)c1ccc2c(c1)OCO2", "Potency": "inconclusive [inhibitor, partial curve]"}, {"smiles": "Cc1nn(C)c(C)c1Nc1ccc(N2C(=O)C3CC=CCC3C2=O)cc1[N+](=O)[O-]", "note": "(configuration not stated)", "Potency": "inconclusive [inhibitor, single point]"}, {"smiles": "Cc1ccc(C)c(N2CCN(C(=O)C(C)n3c(C)c4cnn(-c5ccccc5)c(=O)c4c3C)CC2)c1", "note": "(configuration not stated)", "Potency": "active: 16.4 µM"}, {"smiles": "CC1CC(C)CN(C(=O)c2cc3c(=O)n4ccccc4nc3s2)C1", "note": "(configuration not stated)", "Potency": "inconclusive [inhibitor, single point]"}, {"smiles": "S=C(NCc1cccs1)Nc1cccc(Cl)c1Cl", "activity change, negative = growth inhibition": "inconclusive: -32.5% [inhibitor]"}, {"smiles": "Cc1cc(C)n(C(C)CC(=O)N2CCc3ccccc32)n1", "note": "(configuration not stated)", "Potency": "inconclusive [inhibitor, single point]"}, {"smiles": "COc1ccc(NC(=O)CSc2nc(-c3ccccc3)nc3c2Cc2c(CO)cnc(C)c2O3)cc1Cl", "Potency": "inactive"}, {"smiles": "Cc1cc(C)nc(N2CCN(S(=O)(=O)c3ccc(F)cc3)CC2)n1", "Potency": "inconclusive [inhibitor, partial curve, poor fit]"}, {"smiles": "Cc1ccc(CN(C(=O)COc2ccc(Br)cc2)c2ccccn2)o1", "Potency": "active: 16.4 µM"}, {"smiles": "CC1CCN(c2c([N+](=O)[O-])c(=O)oc3ccccc23)CC1", "Potency": "active: 23.1 µM"}, {"smiles": "O=C(Nc1nc2ccccc2n1CCN1CCOCC1)c1ccc(Cl)cc1", "Potency": "inconclusive [inhibitor, single point]"}, {"smiles": "Cc1ccc(S(=O)(=O)NCCC(=O)NCCCSc2ccccc2)cc1", "Potency": "inactive"}, {"smiles": "O=c1cc(-c2ccccc2)c2c(O)cc(O)cc2o1", "Potency": "inconclusive [inhibitor, single point]"}, {"smiles": "Cc1ccc(CNC(=O)c2c(-c3cccc(Br)c3)noc2C)o1", "Potency": "inactive"}, {"smiles": "COC(=O)c1ccccc1NC(=S)N1CCN(c2ccc(OC)cc2)CC1", "Potency": "inconclusive [inhibitor, single point]"}, {"smiles": "CSc1nsc(SCC(=O)Nc2nc3ccccc3s2)n1", "Potency": "inconclusive [inhibitor, single point]"}, {"smiles": "Cc1ccc(-c2nc(=S)c3c(n2Cc2ccco2)CC(C)(C)OC3)cc1", "Potency": "active: 23.1 µM"}, {"smiles": "COC(=O)c1ccc(OCC2c3cc(OC)c(OC)cc3CCN2C(=O)c2ccccc2F)cc1", "note": "(configuration not stated)", "Potency": "active: 18.4 µM"}, {"smiles": "COc1ccc2oc(C(=O)OCC(=O)NC(C)(C#N)C3CC3)c(C)c2c1", "note": "(configuration not stated)", "Potency": "inactive"}, {"smiles": "Cc1ccc(-c2ccc(/C=N\\NC(=O)c3cc4c(ccc5ccccc54)o3)o2)cc1[N+](=O)[O-]", "Potency": "active: 9.2 µM"}, {"smiles": "O=C(Nc1ccc(Cl)c(S(=O)(=O)N2CCCC2)c1)c1nn(CCO)c(=O)c2ccccc12", "Potency": "inconclusive [inhibitor, single point]"}, {"smiles": "C/C(=N\\NC(=O)c1ccc(Cl)cc1)c1cccnc1", "Potency": "inactive"}, {"smiles": "O=C1C2CCCCC2C(=O)N1c1ccc(S(=O)(=O)Nc2ncccn2)cc1", "note": "(configuration not stated)", "Potency": "inactive"}, {"smiles": "COc1ccc(C(=O)Nc2ncc3c(n2)-c2ccccc2CC3)cc1", "Potency": "inconclusive [inhibitor, single point]"}, {"smiles": "C=CCOc1cccc(C(=O)Nc2ncn[nH]2)c1", "Potency": "inactive"}, {"smiles": "O=c1[nH]c2ccc(S(=O)(=O)Nc3ccccc3O)cc2[nH]1", "Potency": "inactive"}, {"smiles": "Cc1ccc(CNC(=O)c2c(-c3ccccc3Cl)noc2C)cc1", "Potency": "inconclusive [inhibitor, partial curve]"}, {"smiles": "O=C(NCc1ccc(F)cc1)C1CCCN(C(=O)NCc2ccccc2)C1", "note": "(configuration not stated)", "Potency": "inactive"}, {"smiles": "CNC(=S)N(Cc1ccc(OC)cc1)C1CC(=O)N(c2ccc(OC)cc2)C1=O", "note": "(configuration not stated)", "Potency": "inconclusive [inhibitor, single point]"}, {"smiles": "CCn1c(Cc2ccc(OC)cc2)nnc1SCC(=O)Nc1cccc(C(=O)OC)c1", "Potency": "inconclusive [inhibitor, single point]"}, {"smiles": "COc1ccc(-c2nc(CN3CCCCC3CCc3ccccn3)c(C)o2)cc1", "note": "(configuration not stated)", "Potency": "inconclusive [inhibitor, single point]"}, {"smiles": "CC1CC(C)CN(C(=O)C2CCN(S(=O)(=O)c3cccs3)CC2)C1", "note": "(configuration not stated)", "Potency": "inconclusive [inhibitor, partial curve]"}, {"smiles": "CCCCNS(=O)(=O)c1cccc(NC(=O)[C@@H]2O[C@H](CO)[C@H](O)[C@H](O)[C@H]2O)c1", "Potency": "inconclusive [inhibitor, full curve, poor fit]"}, {"smiles": "CCc1ccc(NC(=O)c2cc3c(=O)n(Cc4cccnc4)ccc3nc2C)cc1", "Potency": "inconclusive [inhibitor, single point]"}, {"smiles": "Cc1cccc(C(=O)Nc2cccc(OCc3cc(=O)n4c(C)csc4n3)c2)c1", "Potency": "inconclusive [inhibitor, partial curve, poor fit]"}, {"smiles": "Cc1onc(-c2ccc(Cl)cc2)c1-c1ccnc(SCC(=O)Nc2ccc(C(C)C)cc2)n1", "Potency": "inconclusive [inhibitor, single point]"}, {"smiles": "Cc1cc(C)c(NC(=O)COc2ccccc2C(=O)Nc2ccc3c(c2)oc2ccccc23)c(C)c1", "Potency": "inactive"}, {"smiles": "CCOc1cc2c(cc1OC)C(c1cccc([N+](=O)[O-])c1)NCC2", "note": "(configuration not stated)", "Potency": "inconclusive [inhibitor, single point]"}, {"smiles": "CCOc1ccc(N2C(=O)C3C(c4ccc(OC)cc4OC)NC(CCSC)(C(=O)OC)C3C2=O)cc1", "note": "(configuration not stated)", "Potency": "inactive"}, {"smiles": "COC(=O)c1ccc(Cl)c(NC(=O)C2CCN(S(=O)(=O)Cc3ccccc3)CC2)c1", "Potency": "inactive"}, {"smiles": "CCc1ccc(NC(=O)C(=O)NCC(c2cccnc2)N2CCOCC2)cc1", "note": "(configuration not stated)", "Potency": "inconclusive [inhibitor, single point]"}, {"smiles": "Cc1cc(-c2ccccc2)c2ccc(NC(=O)C(C)(C)C)nc2n1", "Potency": "active: 14.6 µM"}, {"smiles": "O=C(NCc1ccccc1)NC1CCCCC1", "Potency": "inactive"}, {"smiles": "C[C@H](NC(=O)c1nc[nH]c1C(=O)N1CCc2ccccc2C1)C(=O)OCc1ccccc1", "Potency": "inconclusive [inhibitor, single point]"}, {"smiles": "O=C(Nc1cccnc1)c1cc2nc(C3CC3)cc(C(F)(F)F)n2n1", "Potency": "inconclusive [inhibitor, single point]"}, {"smiles": "COc1ccc(CC(=O)Nc2ccc(-c3cn4ccccc4n3)cc2)cc1", "Potency": "inconclusive [inhibitor, partial curve]"}, {"smiles": "COCc1cccc(-c2csc(C(C)(O)c3ccccc3)n2)c1", "note": "(configuration not stated)", "Potency": "inconclusive [inhibitor, single point]"}, {"smiles": "O=C(c1cccc(F)c1)N1CCN(C(=O)c2cc(-c3ccc(Cl)cc3Cl)on2)CC1", "Potency": "active: 18.4 µM"}, {"smiles": "O=C(c1ccccc1)c1ccc(Sc2ccc([N+](=O)[O-])cc2)cc1", "Potency": "inconclusive [inhibitor, single point]"}, {"smiles": "NCCCC[C@H]1CNC(=S)N1CCCCC1CCCCC1", "Potency": "active: 7.31 µM"}, {"smiles": "COc1cccc(NC(=O)COC(=O)c2cc(=O)c3ccccc3o2)c1", "activity change, negative = growth inhibition": "inconclusive: -35.8% [inhibitor]"}, {"smiles": "Cc1ccc(Oc2nnc(-c3ccccc3)cc2C#N)cc1", "Potency": "inactive"}, {"smiles": "COc1ccc(-c2noc(CCC(=O)NCc3ccc(OC)cc3OC)n2)cc1", "Potency": "active: 16.4 µM"}, {"smiles": "N#Cc1ccc(OCC(=O)NC2=NCCS2)cc1", "Potency": "inconclusive [inhibitor, single point]"}, {"smiles": "CN1CCN(CCCCOc2ccc(Br)cc2)CC1", "Potency": "inconclusive [inhibitor, single point]"}, {"smiles": "Cc1nn(Cc2ccccc2Cl)c2sc(C(=O)NCCCn3ccnc3)cc12", "Potency": "inconclusive [inhibitor, single point]"}, {"smiles": "Nc1ccccc1-n1nc2ccc3ccccc3c2n1", "Potency": "inactive"}, {"smiles": "CCN(CC)CCOC(c1ccccc1)c1ccc(C)cc1", "note": "(configuration not stated)", "Potency": "inconclusive [inhibitor, single point]"}, {"smiles": "CC(C)c1ccc(NC(=O)CSc2nc3ncccc3[nH]2)cc1", "Potency": "active: 25.9 µM"}, {"smiles": "Cc1cc(-c2ccc(Br)cc2)n2nc(C)cc2n1", "Potency": "inconclusive [inhibitor, single point]"}, {"smiles": "CO/N=C(\\c1nonc1N)N1CCN(c2ccc([N+](=O)[O-])cc2Cl)CC1", "Potency": "inconclusive [inhibitor, single point]"}, {"smiles": "Cc1noc(C)c1C(=O)NCc1cccs1", "Potency": "inconclusive [inhibitor, partial curve]"}, {"smiles": "c1ccc(-c2csc(CN3CCCCC3)n2)cc1", "Potency": "inconclusive [inhibitor, single point]"}, {"smiles": "CCCN1CNc2c(c(=O)[nH]c(=S)n2CCc2ccc(Cl)cc2)C1", "Potency": "inconclusive [inhibitor, single point]"}, {"smiles": "COc1ccc(OCC(=O)NCCS(=O)(=O)N2CCN(c3cccc(Cl)c3)CC2)cc1", "Potency": "inconclusive [inhibitor, partial curve]"}, {"smiles": "CSc1ccc(CCNC(=O)CN2C(=O)CCSc3ccccc32)cc1", "Potency": "inconclusive [inhibitor, single point]"}, {"smiles": "O=C(COC(=O)CNC(=O)c1ccccc1F)Nc1ncc(Cl)cc1Cl", "Potency": "inactive"}, {"smiles": "COc1ccc(N2CCN(S(=O)(=O)CCNC(=O)COc3ccccc3C)CC2)cc1", "Potency": "inconclusive [inhibitor, partial curve, poor fit]"}, {"smiles": "O=C(Nc1ccccc1N1CCOCC1)c1cc(Br)c(Br)s1", "Potency": "inactive"}, {"smiles": "O=C(N/N=C/c1ccncc1)c1cc(C2CC2)nc2ccccc12", "Potency": "inconclusive [inhibitor, single point]"}, {"smiles": "COc1ccc(Br)cc1/C=N/NC(=O)CNC(=O)c1cccnc1", "Potency": "inconclusive [inhibitor, single point]"}]}]}
